Reference: ChEMBL document CHEMBL4888484, “Replenishing the malaria drug discovery pipeline: Screening and hit evaluation of the MMV Hit Generation Library 1 (HGL1) against asexual blood stage Plasmodium falciparum ,using a nano luciferase reporter read-out” (2022)
Hit rate of the full screen: of about 150,000 compounds, about 540 (0.36%) showed an effect of 50% or more. The list shows a part of the results.

System: Plasmodium falciparum
Assay: Primary screen in NF54 nanoGlo assay, in single point, at 2uM, 72h; a lower Z score goes with more inhibition
Assay type: functional, Erythrocyte
Conditions: timepoint 72 hour

SMILES	% Inhibition	Z score
CC(=O)c1ccc(N2CC[C@H](c3ccccc3Cl)C2)nc1	2%	-0.26
CC(C)S(=O)(=O)[C@@H](C)C(=O)NCc1ccco1	-16%	2.11
Cc1cccc(NC(=O)NC(=O)COC(=O)C[C@H](C)c2c(C)n[nH]c2C)c1C	7%	-1.1
Nc1ccc(Br)c2c1CCCC2	-2%	0.34
Cn1nnc(COc2nc(C(C)(C)C)no2)n1	-8%	1.29
CO[C@H]1CN(C)C[C@@H]1Nc1nc(N)nc(C)c1Cl	-9%	1.15
CCn1nccc1-c1nc(C2CCN(C(=O)c3ccoc3)CC2)no1	-20%	3.84
N#Cc1ccnc(N2CCC(C(=O)O)(n3cnc4ccccc43)CC2)c1	-1%	0.19
CC(C)[C@H](Cn1ccnc1)NC(=O)c1cnnn1-c1ccccc1	-4%	0.64
COCc1ccc(CN[C@H](C)C(=O)OC)cc1	-3%	0.38
Cn1nc(C(F)(F)F)cc1CN1CC(=O)NCC1(C)C	-7%	1.4
CC(C)c1nccn1CC1CCN(C(=O)CN2C(=O)CCC2=O)CC1	-5%	0.67
O=C(CCc1ccccc1)N1CCCCCCC1	-13%	1.85
O=C(CCNC(=O)OCC(F)(F)F)Nc1cc(Cl)cc(Cl)c1	10%	-1.29
COc1cc(=O)n2c(c1C(=O)NCc1ccc(C(F)(F)F)cc1)CCCCC2	-13%	1.5
CC(C)c1nccn1-c1ccncc1Cl	-4%	0.4
O=C(CC1(N2Cc3ccccc3C2=O)CCCCC1)NCCc1ccc(F)cc1	7%	-1
NC(=O)C1CCN(C(=O)OCC(F)(F)F)CC1	6%	-0.86
Cc1cnc(C2CN(S(=O)(=O)c3ccc4c(c3)CCC4)C2)n1CC1CC1	-14%	1.81
Cc1ccc(-n2cc(NC(=O)NCCc3cscn3)cn2)c(C)c1	5%	-0.96
Cc1nscc1C(=O)Nc1ccc(Br)c(C)c1F	-7%	1.31

SMILES	% Inhibition	Z score
CN(C)c1ccc(N2CCC(C(=O)N3CCN(c4cccc(Cl)c4)CC3)CC2)nn1	-18%	3.29
Cc1ccc2c(c1)[C@H](Cc1nc3ccccc3c(=O)n1-c1ccccc1)C(=O)N2C	5%	-0.6
CN(CC(F)(F)F)C(=O)CN1C(=O)c2ccccc2C(C)(C)C1=O	2%	-0.16
Cn1c(C(=O)NCCc2c[nH]c3ccccc23)cc2c(-c3cccs3)nn(-c3ccccc3)c21	-7%	1.04
Cn1nc(-c2ccncc2)nc1-c1cscn1	1%	-0.19
Cc1nc(-c2ccncc2)nn1[C@H]1CCCC[C@@H]1O	-8%	1.53
N#Cc1ccccc1-c1ccc(CN2CCC(CN3CCOCC3)CC2)o1	-6%	0.75
Cc1cccnc1C(=O)N1CCC(Oc2ccc3ncccc3c2)(C(=O)O)CC1	-4%	0.77
CCCc1nc(CN[C@H](c2ccccc2)C2(CO)CCOCC2)no1	-6%	0.57
CC(C)C(=O)N1CCN(c2ccc(NC(=O)c3ccc(F)cc3F)cn2)CC1	-12%	1.07
O=C(NCCc1cccnc1)c1cc(-c2cccc(Cl)c2)[nH]n1	29%	-3.29
CCOc1ccc(-c2cc3c(N4CCC(C(=O)NCc5ccc(OC)c(OC)c5)CC4)nccn3n2)cc1	8%	-0.79
Cc1oc(C(=O)N2CCCCC2C2CCCN2C(=O)OC(C)(C)C)cc1S(=O)(=O)N1CCCC1 (centres undefined)	-1%	0.08
Cc1nc2c([nH]1)CN(C(=O)NCCc1nc3c(s1)CCC3)CC2	-11%	1.2
CCC1C(CO)CCN1C(=O)[C@@H]1C[C@H](C)CC(=O)N1 (some centres undefined)	-3%	0.52
CCC(C)N(C(=O)c1cc(C(C)=O)c(C)nc1C)C(C)CC (centres undefined)	4%	-0.68
COc1ccc([C@H](C)NC(=O)C(=O)Nc2cc(C)on2)c(OC)c1	4%	-0.5
COCc1nc(C)cc(N[C@H]2CCCC[C@@H]2OC)n1	16%	-1.99
CCOC(=O)CCn1cnc(-c2ccccc2)c1-c1cccc2nonc12	-7%	1.38
CN1C(=O)C2(CCN(C(=O)c3cnccn3)CC2)c2ccccc21	4%	-0.77
CCCN1CCN(c2ncc3c(n2)CCN(Cc2ccc4c(c2)OCCO4)C3)CC1	11%	-1.56
